The campaign covered roughly 48,000 compounds. About 1,200 (2.5%) were called active. Roughly 2% stayed inconclusive and do not appear here.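 The calls were made as follows: active = activation of at least 60% and not above a set upper limit (about 1 call in 100 departs from these limits); inconclusive = activation of 40% to 60%, or above that upper limit; inactive = activation under 40%.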 Some of the results follow.

UniProt O75388, sequence (O75388 whole entry, looked up): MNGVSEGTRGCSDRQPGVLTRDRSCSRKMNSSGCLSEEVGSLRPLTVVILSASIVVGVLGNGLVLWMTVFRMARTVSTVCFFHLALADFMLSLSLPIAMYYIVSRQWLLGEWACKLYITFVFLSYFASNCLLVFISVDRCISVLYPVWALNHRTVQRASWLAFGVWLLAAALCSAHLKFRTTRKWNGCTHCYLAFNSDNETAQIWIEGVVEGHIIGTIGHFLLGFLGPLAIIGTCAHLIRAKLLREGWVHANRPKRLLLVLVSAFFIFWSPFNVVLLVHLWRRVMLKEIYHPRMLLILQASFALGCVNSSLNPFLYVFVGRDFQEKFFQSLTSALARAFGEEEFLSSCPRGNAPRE

This assay has as its target Probable G-protein coupled receptor 32 (Homo sapiens) (UniProt O75388). Description: qHTS for Agonists of Human Resolvin D1 Receptor DRV1. Also: 0% is about no effect. As to conditions: CHO-K1 GPR32 beta-arrestin PathHunter luminescence, 90 min; at 76.9 µM; active compounds read high; zero percent set by DMSO-only wells. A digest of the protocol:
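Using DMSO wells as EC0, agonist-induced signal was taken as chemiluminescence from beta-Gal reconstituted upon beta-arrestin recruitment to GPR32 in CHO-K1 cells after 90 min compound treatment.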
(In general: qHTS replaces the single test concentration by a dilution series.)
Regarding `CC1=C(C(=O)Nc2ccc(C)cc2C)C(c2cccs2)n2nc(SCc3cccc(C)c3)nc2N1` (stereo not drawn), the activation was inactive: 4.04%.

Consider `CCOC(=O)CSc1nc2c(sc3ccccc32)c(=O)n1CCO`, for which the activation is inactive: -12%.

Regarding `COc1ccc(OCC(O)Cn2c(NCCO)nc3c2c(=O)n(C)c(=O)n3C)cc1` (stereo not drawn), the activation was inactive: -9.3%.

As to `Cc1nn(CC(=O)N2CCN(c3ccc(Cl)cc3)CC2)c(=O)c2cccn12`, the activation is inactive: -10.4%.

As to `CCN(CC)CCCNc1ncnc2c1cnn2-c1ccc(C)c(C)c1`, the activation was inactive: 19.1%.

As for `Cc1csc2nc(COc3cccc(NC(=O)c4ccccc4F)c3)cc(=O)n12`, the activation was inactive: 6.69%.

With `Cc1ccc(-n2c(=O)c3c(c4cc(C)ccc4n3C)n(CC(=O)N3CCCC3)c2=O)cc1`, the activation is inactive: -10.6%.

For the compound `O=C(CSC1=Nc2ccccc2N=C(c2ccc(F)cc2)C1)Nc1ccccc1`, the activation is inactive: -15.4%.

For the compound `CCOc1ccc(NC(=O)c2c(NC(=O)Cc3ccccc3)sc3c2CCCCC3)cc1`, the activation was inactive: -12.7%.

Take `Cc1cc(C)c(NC(=O)C2CCN(c3nn4c(=O)cc(C)nc4s3)CC2)c(C)c1`: the activation was inactive: 4.49%.

Consider `COc1ccc(NCc2cccn2-c2nnc(N3CCCCC3)s2)cc1OC`, for which the activation is active: 83.8%.

On to `Cc1ccc2nc(COc3ccccc3NC(=O)c3ccc(F)cc3)cc(=O)n2c1`, for which the activation is inactive: 3.38%.

As for `Cc1cc(C)cc(NC(=O)Cn2cc(C(=O)C3CCCCC3)c3ccccc32)c1`, the activation is inactive: 9.71%.

In the case of `O=C(CSc1nc2c([nH]c3ccccc32)c(=O)n1-c1ccc(Cl)cc1)c1ccccc1`, the activation is inactive: 8.73%.

Consider `Cc1ccc2c(=O)cc(C(=O)Nc3ccc(S(=O)(=O)Nc4ncccn4)cc3)oc2c1C`, for which the activation is active: 66.6%.

Take `Cc1ccc(NC(=O)CSc2cn(CC(=O)N3CCCC3)c3ccccc23)cc1Cl`: the activation was inactive: 6.34%.

Take `CCOc1ccc(NS(=O)(=O)c2ccc3c(c2)CCCN3C(=O)C2CCC2)cc1`: the activation is inactive: -28.8%.

Regarding `COc1ccccc1CNC(=O)c1cn(C)c2ccc(S(=O)(=O)N(C)C3CCCCC3)cc2c1=O`, the activation is inactive: -18.5%.

Regarding `CC(Cc1ccccc1)(NC(=O)CN)c1ccccc1` (stereo not drawn), the activation is inactive: -96.2%.

With `Cc1ccc(NC(=O)Cn2c(=O)nc(-c3ccccc3)c3ccccc32)cc1F`, the activation is inactive: 0.613%.

Turning to `COc1ccc(CCNc2ncnc3c2cnn3-c2cc(Cl)ccc2C)cc1`, the activation was inactive: 47.5%.

Turning to `COc1ccc(Cn2c(SCC(=O)N(C)Cc3ccccc3)nc3ccccc32)cc1`, the activation was inactive: -49%.

Regarding `CC(C)(C)C1CCc2oc3ccc(NS(=O)(=O)c4ccc(C(=O)O)cc4)cc3c2C1` (stereo not drawn), the activation is inactive: 47.2%.

Regarding `CC1CCN(S(=O)(=O)c2ccc3c(ccc(=O)n3CC(=O)Nc3cccc(F)c3)c2)CC1`, the activation is inactive: -17.5%.

Take `Cc1cccc(-c2noc(-c3ccc(N4CCOCC4)c([N+](=O)[O-])c3)n2)c1`: the activation is inactive: 24.2%.

`O=C(Nc1cnc(N2CCN(c3ccccc3)CC2)c(C(=O)O)c1)c1cccs1`: the activation was inactive: -5.46%.

Turning to `CN1CCc2c(sc3c2C(=O)NC(c2ccc(C(C)(C)C)cc2)N3)C1` (stereo not drawn), the activation was inactive: -7.01%.

In the case of `CC1CCCCN1C(=O)c1cc(-c2ccc(Br)cc2)on1` (stereo not drawn), the activation is inactive: -12.5%.

On to `CCOC(=O)C1CCN(c2nc3c(S(=O)(=O)c4ccc(C)c(C)c4)nnn3c3ccc(Cl)cc23)CC1`, for which the activation is inactive: -15.7%.

Turning to `CC1=C(C(=O)N2CCN(c3cccc(Cl)c3)CC2)C2(CCCCC2)OC1=O`, the activation is inactive: 2.55%.

As to `COc1ccc(C2N=C(N)Nc3nc4ccccc4n32)cc1` (stereo not drawn), the activation is inactive: -6.6%.

With `COc1ccc(N(Cc2cc3cccc(C)c3[nH]c2=O)C(=O)c2cccc(Cl)c2)cc1`, the activation is inactive: -11.4%.

Turning to `CCc1cccc(-n2c(=O)c3cccnc3n2CC(=O)Nc2c(C)cc(C)cc2C)c1`, the activation was inactive: 0.458%.

For `O=[N+]([O-])c1cccc2c(Br)[nH]nc12`, the activation is inactive: 3.45%.

With `COc1ccc2nc(N(Cc3cccnc3)C(=O)Cc3ccccc3)sc2c1`, the activation was inactive: -17%.

`CN(C)S(=O)(=O)c1ccc(C(=O)NCCSc2c(-c3ccccc3)[nH]c3ccccc23)cc1`: the activation was inactive: -18.4%.

Take `CC(=O)N1CCc2cc(S(=O)(=O)C(C)CC(=O)Nc3ccc(Br)c(C)c3)ccc21` (stereo not drawn): the activation is inactive: 28.9%.

Regarding `CC(=O)Nc1ccc(S(=O)(=O)NC2=NCN(CCO)CN2)cc1`, the activation is inactive: -5.12%.

Take `Fc1cccc(-c2nnn3c2nc(NC2CCCCC2)c2ccccc23)c1`: the activation is inactive: 6.85%.

In the case of `COc1ccc(NC(=O)C2=C(C)Nc3ncnn3C2c2cccn2C)cc1` (stereo not drawn), the activation was inactive: -7.58%.

With `CC1CCN(CC2CCN(C(=O)Nc3ccc(Br)cc3F)CC2)CC1`, the activation is inactive: 8.72%.

Consider `Cc1cccc(-n2c(CNC(=O)c3cccc(F)c3)nnc2SCC(=O)Nc2ccccc2F)c1`, for which the activation is inactive: 1.21%.

In the case of `COc1ccccc1CNC(=O)CN1C(=O)COc2ccc(S(=O)(=O)NC3CCCC3)cc21`, the activation was inactive: -10.9%.

Take `O=C(C1CCN(S(=O)(=O)Cc2ccccc2)CC1)N1CCN(c2cccc(C(F)(F)F)c2)CC1`: the activation was inactive: 21%.

As for `CCOC(=O)c1c(NC(=O)c2ccc(S(=O)(=O)N(C)C3CCCCC3)cc2)sc2c1CCN(C(C)C)C2`, the activation was inactive: -14.3%.

On to `Cc1noc(C)c1S(=O)(=O)N(CC(=O)NCCc1ccccc1)c1ccc(C(C)C)cc1`, for which the activation is inactive: -1.65%.

Regarding `Cc1ccc(Cl)cc1-n1ncc2c(N3CCN(Cc4ccccc4)CC3)ncnc21`, the activation is active: 85.2%.

Take `COc1ccc(Cc2cnc(N)nc2N)cc1OC`: the activation was inactive: -1.04%.

Consider `COC(=O)c1ccccc1NC(=O)c1sc2nc(C)cc(C)c2c1NC(=O)c1ccccc1OC`, for which the activation was inactive: -6.29%.

As for `CCOCCCN1C(=O)c2ccccc2CC1(C)C(=O)NC1CCCCC1` (stereo not drawn), the activation is inactive: -13.5%.

As to `Cc1ccc(CCNc2ncnc3onc(-c4ccc(Cl)cc4)c23)cc1`, the activation is inactive: 3.68%.

Take `COc1ccc(CNC(=O)CN2C(=O)CSc3ccc(S(=O)(=O)N4CCC(C)CC4)cc32)cc1`: the activation was inactive: -13.3%.

As to `COc1ccc(/C=C/C(=O)Nc2nc(-c3cccs3)ns2)cc1`, the activation was inactive: 14.1%.

With `COc1ccc(NC(=O)CSc2nc3c(oc4ccccc43)c(=O)n2Cc2ccco2)cc1Cl`, the activation is inactive: -3.41%.

Turning to `COc1ccc(CNC(=O)C2CCC(CNS(=O)(=O)c3ccc4c(c3)CCCC(=O)N4)CC2)cc1` (stereo not drawn), the activation was inactive: 1.99%.

As for `Cc1ccc(-c2cn3c(n2)sc2cc(C(=O)NCCC4=CCCCC4)ccc23)cc1`, the activation is inactive: -7.18%.

For the compound `COc1cc(-c2nc(Cn3nnc(C(=O)Nc4cccc(Cl)c4)c3C)c(C)o2)cc(OC)c1OC`, the activation is inactive: 1.88%.

Consider `COc1ccc(-c2nc(S(=O)(=O)c3ccc(Cl)cc3)c(NCc3ccccc3)o2)cc1`, for which the activation is inactive: -10.2%.

Take `Nc1c(I)cc(I)c(C(=O)N(CCC(=O)O)c2ccccc2)c1I`: the activation was inactive: -21.2%.

For `Cc1nnc(NC(=O)CSCc2cc(=O)c3ccccc3[nH]2)s1`, the activation is inactive: -2.49%.

With `COc1cc(OC)c(NS(=O)(=O)c2c(C(=O)N3CCC(C)CC3)c(C)n(C)c2C)cc1Cl`, the activation was inactive: -14.5%.

As for `Cc1cc(Nc2ccc(C(=O)O)c(O)c2)n2ncnc2n1`, the activation was inactive: -77%.

For `COc1ccc(CCNC(=O)CCn2c(=O)c3ccccc3n(Cc3ccccc3)c2=O)cc1OC`, the activation is inactive: 0.658%.

Consider `CC(C)c1nn2c(=O)cc(COC(=O)c3ccccc3NC(=O)c3cccc(Cl)c3)nc2s1`, for which the activation is inactive: -16.5%.

Consider `CN(C)CCNc1oc(-c2ccc(COc3ccc(Cl)cc3)o2)nc1C#N`, for which the activation was inactive: 0.359%.

`Cc1nc2ccn(Cc3cccnc3)c(=O)c2cc1C(=O)N1CCN(c2ccc(F)cc2)CC1`: the activation was inactive: -6.02%.

As for `COC(=O)c1ccccc1NC(=O)c1cnc2c(-c3cccc(C)c3)c(C)nn2c1C`, the activation is inactive: -7.89%.

On to `CCS(=O)(=O)N1CC(=O)N(c2ccc(Cl)cc2)C(C)(C(=O)NC2CCCCCC2)C1` (stereo not drawn), for which the activation was inactive: -0.0288%.

As to `CCc1ccc(C(=O)c2cn(Cc3ccc(F)cc3)c3cc(OC)c(OC)cc3c2=O)cc1`, the activation was inactive: -7.17%.

Consider `Cc1cc(C)cc(Oc2nc3c(C)cccn3c(=O)c2/C=C(\C#N)c2nc3ccccc3s2)c1`, for which the activation was inactive: -5.13%.

`COc1ccc(CCNC(=O)C(C)n2c(=O)cc(C(F)(F)F)c3c(C)nn(C)c32)cc1OC` (stereo not drawn): the activation was inactive: -10.3%.

Turning to `COc1ccc(N2CCN(Cc3nnc(-c4cccc(Br)c4)o3)CC2)cc1`, the activation is inactive: -3.21%.

Turning to `COc1ccccc1Cc1nc2ccccc2nc1SCC(=O)N1CCN(c2ccccc2)CC1`, the activation is inactive: -18.4%.

As to `Cc1ccc(C(C)C)c(OCCSc2nc3ccccc3n2CC(O)CO)c1` (stereo not drawn), the activation is inactive: -9.07%.

With `CC(=O)c1cc(-c2ccc(F)cc2)n(CC(=O)Nc2cc(C)cc(C)c2)c1C`, the activation is inactive: 0.952%.

For the compound `COc1ccc(CCn2c3c(c(=O)[nH]c2=O)C(NC(=O)c2ccc(C(C)(C)C)cc2)(C(F)(F)F)C(=O)N3)cc1OC` (stereo not drawn), the activation was inactive: 13%.

`COc1cccc(NC(=O)/C(C#N)=C/c2c(C)n(Cc3ccc(Cl)cc3)c3ccccc23)c1`: the activation was inactive: 1.66%.

As for `CC(C)Cn1c(-c2ccc(S(=O)(=O)N3CCOCC3)cc2)csc1=Nc1cc(Cl)ccc1Cl`, the activation was inactive: -2.44%.

For `O=C(NCc1ccco1)c1ccc2c(c1)N(Cc1ccc(Cl)cc1)C(=O)c1ccccc1S2`, the activation was inactive: -26.8%.

For the compound `CCOc1ccc(Nc2nc3c(S(=O)(=O)c4ccc(C(C)C)cc4)nnn3c3ccsc23)cc1`, the activation was inactive: 2.39%.

As for `Cc1cc2nc(-c3ccc(NC(=O)c4cc5ccccc5o4)cc3)oc2cc1C`, the activation was inactive: -3.47%.

In the case of `CCN(CC)S(=O)(=O)c1ccc2nc(NC(=O)c3cncc(Br)c3)sc2c1`, the activation was inactive: 7.48%.

Consider `CCN(C(=O)c1cc2c(=O)oc3ccc(C)cc3c2s1)c1ccccc1C`, for which the activation is inactive: -3.94%.

These data come from PubChem BioAssay AID1346428 (National Center for Advancing Translational Sciences (NCATS), 2018).
